Measurements from the supplement of paper PMC3334620.
Over roughly 33,000 sequences, “E-score (-0.5 to 0.5)” has its median near -0.054; the highest 2% begin near 0.35. The list shows a part of the results.

The sequences below were run against T1, Stb5 (UniProt P38699) (assay: PBM E-score (8-mer binding enrichment) (E-score (-0.5 to 0.5)); higher = stronger / more preferred TF binding; most listed sequences are background and not binding sites). Conditions: protein concentration: 200 nM; construct: GST-full length.
T1 sequence: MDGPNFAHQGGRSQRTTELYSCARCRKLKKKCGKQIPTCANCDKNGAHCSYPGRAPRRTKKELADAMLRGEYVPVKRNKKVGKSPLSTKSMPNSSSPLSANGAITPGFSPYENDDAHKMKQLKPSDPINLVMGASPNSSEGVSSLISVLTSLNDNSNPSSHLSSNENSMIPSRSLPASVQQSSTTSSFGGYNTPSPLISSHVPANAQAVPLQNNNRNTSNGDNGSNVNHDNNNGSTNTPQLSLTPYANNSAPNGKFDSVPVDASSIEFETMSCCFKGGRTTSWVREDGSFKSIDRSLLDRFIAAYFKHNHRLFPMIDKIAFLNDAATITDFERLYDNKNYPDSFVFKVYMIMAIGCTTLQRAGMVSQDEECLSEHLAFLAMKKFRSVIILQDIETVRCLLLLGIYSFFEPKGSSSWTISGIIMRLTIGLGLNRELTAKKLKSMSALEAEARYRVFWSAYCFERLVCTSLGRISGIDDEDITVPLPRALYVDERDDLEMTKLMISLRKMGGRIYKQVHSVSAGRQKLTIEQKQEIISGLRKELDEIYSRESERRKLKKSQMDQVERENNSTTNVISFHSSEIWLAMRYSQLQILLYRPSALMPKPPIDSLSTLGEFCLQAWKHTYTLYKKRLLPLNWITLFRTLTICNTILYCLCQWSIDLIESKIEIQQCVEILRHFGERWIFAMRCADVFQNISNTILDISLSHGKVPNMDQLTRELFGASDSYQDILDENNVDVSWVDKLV
Method in brief: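 Masliner-normalised scans of fluorescent anti-GST signal were the basis for scoring. That signal came from GST-tagged yeast transcription factors applied at about 100-200 nM to double-stranded universal all-10-mer Agilent arrays on fresh or once-stripped slides. Each ungapped eight-base word, pooled with its reverse complement, received an E-score from the Universal PBM Analysis Suite.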
With CACAGTAG the “PBM E-score” value was -0.255. In the case of GTACAGAC, the “PBM E-score” value is reported as -0.196. With ACTAGTTG the “PBM E-score” value was -0.2. For AGTCTGCA, the “PBM E-score” value was -0.132. For ATCATATG, the “PBM E-score” value was -0.111. For AAGTCTGG, the “PBM E-score” value was -0.316. With CAGCAGCA the “PBM E-score” value was -0.244. For GATAACGA, the “PBM E-score” value was -0.102. For GACTCGCA, the “PBM E-score” value was -0.089. In the case of ATGTAGAG, the “PBM E-score” value is reported as -0.0692. In the case of ATCCATCG, the “PBM E-score” value is reported as 0.00275. In the case of CACAATGA, the “PBM E-score” value is reported as -0.244. CAAAATTG was tested, and the “PBM E-score” value was -0.176. CCCTCTAG was tested, and the “PBM E-score” value was -0.109. In the case of TCAGGCAA, the “PBM E-score” value is reported as -0.186. With ATGCAGAC the “PBM E-score” value was -0.197. CCCATGAA was tested, and the “PBM E-score” value was -0.0849. For CGGAGCTC, the “PBM E-score” value was 0.249. With CTTCCAAA the “PBM E-score” value was -0.293. With ACTTAGAT the “PBM E-score” value was 0.0184. In the case of GGACATAC, the “PBM E-score” value is reported as 0.314. For CCTTTTAC, the “PBM E-score” value was -0.163. AACAAATG was tested, and the “PBM E-score” value was -0.0842. ACTGCCGC was tested, and the “PBM E-score” value was 0.311. AGTAAAAC was tested, and the “PBM E-score” value was -0.0669. For CGTGCATC, the “PBM E-score” value was -0.0271. For ATCGTAAG, the “PBM E-score” value was -0.132. In the case of CCCGCGAA, the “PBM E-score” value is reported as 0.0986. For GAAGATCC, the “PBM E-score” value was 0.0386. In the case of AACGTTTG, the “PBM E-score” value is reported as -0.125. With CAGCTAGA the “PBM E-score” value was -0.208. In the case of AGATAACA, the “PBM E-score” value is reported as -0.0529. In the case of GTGCTCTA, the “PBM E-score” value is reported as -0.159. For CATAGAAC, the “PBM E-score” value was -0.0402. AAGCGCTG was tested, and the “PBM E-score” value was 0.078. In the case of CTCAAGGA, the “PBM E-score” value is reported as -0.163. For AAGACCTC, the “PBM E-score” value was -0.0749. TCAGCCGA was tested, and the “PBM E-score” value was 0.0641. ACCCATAG was tested, and the “PBM E-score” value was -0.249. With CTGTTACA the “PBM E-score” value was -0.0738. With CCTCGCTA the “PBM E-score” value was -0.137. With GCAGGACA the “PBM E-score” value was 0.00302. In the case of ACCCGTTA, the “PBM E-score” value is reported as 0.0551. With AAATAAGA the “PBM E-score” value was 0.231. For ATATAAGA, the “PBM E-score” value was -0.0442. In the case of CCGCTCGC, the “PBM E-score” value is reported as 0.373. With CAATGCTA the “PBM E-score” value was -0.228. With CGTTTGCA the “PBM E-score” value was 0.0334. With CTGTCGAA the “PBM E-score” value was -0.286. With CAAGGAAC the “PBM E-score” value was 0.0348. With AGGCCAAA the “PBM E-score” value was -0.132. GCTTAAGA was tested, and the “PBM E-score” value was 0.104. In the case of AAGATTCG, the “PBM E-score” value is reported as -0.0384. For AAAGCAAG, the “PBM E-score” value was -0.0917. For AGTGATAA, the “PBM E-score” value was -0.0882. In the case of AGCTAACG, the “PBM E-score” value is reported as 0.00522. With ACCAGAGA the “PBM E-score” value was -0.296. For GTTAACGA, the “PBM E-score” value was -0.155. In the case of ACTGGACG, the “PBM E-score” value is reported as 0.0439. For CAGCTGGA, the “PBM E-score” value was -0.205. For GCACTAAA, the “PBM E-score” value was 0.253. With GGCGAATA the “PBM E-score” value was 0.15. GGAGTCAA was tested, and the “PBM E-score” value was 0.039. AGATTGTC was tested, and the “PBM E-score” value was 0.0766. For TATGTCGA, the “PBM E-score” value was -0.142. CTCGTTAC was tested, and the “PBM E-score” value was -0.274. With CTCTGCGA the “PBM E-score” value was -0.185. For AAATACGT, the “PBM E-score” value was -0.0651. In the case of CTTGTCTA, the “PBM E-score” value is reported as -0.11. In the case of AACGAACG, the “PBM E-score” value is reported as -0.0159. In the case of AAGGCTCC, the “PBM E-score” value is reported as -0.0559. CCGACCCC was tested, and the “PBM E-score” value was 0.247. With AGATCCCA the “PBM E-score” value was -0.136. With AGACGCTC the “PBM E-score” value was -0.162. For CTATCACC, the “PBM E-score” value was 0.216. In the case of CTTCTTGA, the “PBM E-score” value is reported as -0.201. With CTTTACAA the “PBM E-score” value was -0.00901. In the case of CAAAAATG, the “PBM E-score” value is reported as -0.116. For CCTGACGC, the “PBM E-score” value was -0.0414. AAAGGTTG was tested, and the “PBM E-score” value was -0.192. For AGGACAGG, the “PBM E-score” value was -0.0724. In the case of CTATTTGA, the “PBM E-score” value is reported as -0.00364. With AACTAGGA the “PBM E-score” value was -0.00297. CCCACCCA was tested, and the “PBM E-score” value was 0.115. TAATGTCA was tested, and the “PBM E-score” value was -0.0133. For GAAGATAC, the “PBM E-score” value was -0.0172. For AGTATTAT, the “PBM E-score” value was -0.33. In the case of AACTATGG, the “PBM E-score” value is reported as -0.0418. GCTAGGCC was tested, and the “PBM E-score” value was 0.102. In the case of AGAACTTC, the “PBM E-score” value is reported as -0.167. For GCAGGCGA, the “PBM E-score” value was -0.252. For GACAGGTC, the “PBM E-score” value was -0.0535. TAAATAAA was tested, and the “PBM E-score” value was 0.0938. For CAGCGTTA, the “PBM E-score” value was -0.0407.
